# Test results published in PubChem BioAssay AID624296 (National Center for Advancing Translational Sciences (NCATS), 2012).
# Screen size: about 350,000 compounds; about 9,900 (2.8%) were called active. Inconclusive results, whose numbers are uncertain, are shown with a selection of clear calls. Calls come from the whole dose curve; as a rule, active = well fitted activation curve with a large enough effect; inconclusive = small, poorly fitted or top-dose-only effect; inactive = no such curve, though single readings can be large or run the other way. No potency is given beside an inconclusive call; the fits are too rough.
# Test: A quantitative high throughput screen for small molecules that induce DNA re-replication in MCF 10a normal breast cells. Note: nearly all actives have a fitted effect of over 50% in size.
# Conditions: MCF 10A DNA re-replication, Hoechst nuclear intensity, 48 h; series mostly up to 46.1 µM
# Description: H Molecular Libraries Probe Production Network [MLPCN]
# NIH Chemical Genomics Center [NCGC]
# Assay Provider: Melvin DePamphilis, NICHD, NIH
# Eukaryotic cells normally restrict genome duplication to once per cell division. When this process is aberrant, DNA re-replication occurs when cells reinitiate DNA replication before the first round of replication is complete. DNA re-replication induces the DNA damage response, arrests cell proliferation, and triggers apoptosis. The cell cycle components cyclin A, Cdt-1, Cdc6 and geminin are critical regulators of this process and their misregulation results in DNA re-replication in normal and cancer cells. To identify compounds that induce re-replication in normal cells, an image-based assay was used to measure DNA content of nuclei, as detected by the fluorescent DNA binding dye, Hoechst. Cell nuclei were imaged by a fluorescence scanning plate imager and compounds that induce DNA re-replication were identified by the increase of nuclei with elevated fluorescence intensity
# For screening, 250 cells in 5 uL/well were dispensed into black clear 1536-well plates (Aurora) using a solenoid-based dispenser. Following transfer of 23 nL compound or DMSO vehicle by a pin tool, the plates were incubated 48 hr at 37 C and 5% CO2. After addition of 1 uL/well Hoescht stain, the plates were incubated 40 min at 37 C, 5% CO2 and total intensity of fluorescent objects (nuclei) were enumerated by an Acumen Explorer Ex3 (TTP LabTech) fluorescence scanning plate imager (405 nm excitation, 500-530 nm emission).
# Keywords: NIH Roadmap, MLPCN, MLI, MLSMR, qHTS, NCGC, DNA replication, cancer
# Potency is the fitted concentration of half-maximal effect; tags give direction and shape of the fitted curve.
row,Structure (SMILES),Potency
1,CCc1nnc(NS(=O)(=O)c2ccc(NC(=S)NC(=O)c3ccccc3)cc2)s1,inactive
2,NS(=O)(=O)c1ccc(NC(=O)N2c3ccccc3Sc3ccccc32)cc1,"inconclusive [activator, partial curve, poor fit]"
3,CN(C(=O)c1cccc(NC(=O)Cc2ccc(NC(=O)C3CCN(C(=O)C4CCCCC4)CC3)cc2)c1)C1CCCC1,inactive
4,COc1ccc(N2CC(C(=O)Nc3ccc(S(=O)(=O)Nc4nc(C)cc(C)n4)cc3)CC2=O)cc1 (stereo not drawn),"inconclusive [activator, single point]"
5,C[C@@H](NC(=O)c1coc(=O)c(Br)c1)c1ccccc1,"inconclusive [activator, single point]"
6,C=C(c1cn(C(C)=O)c2ccccc12)c1cn(C(C)=O)c2ccccc12,inactive
7,CN(C(=O)c1ccc(NC(=O)Cc2ccc(NC(=O)C3CCN(C(=O)C4CCC4)CC3)cc2)cc1)C1CCCC1,"inconclusive [activator, full curve, poor fit]"
8,O=C(Cc1cccc(NC(=O)C2CCCN(C(=O)C3CCCC3)C2)c1)Nc1ccc(C(=O)N2CCOCC2)cc1 (stereo not drawn),"inconclusive [activator, full curve, poor fit]"
9,CCCCN=c1scc(-c2ccc3c(c2)NC(=O)CO3)n1N=C1CCCC1,"inconclusive [activator, single point]"
10,CC(Nc1ccc(S(=O)(=O)N2CCN(C)CC2)cc1[N+](=O)[O-])c1ccccc1 (stereo not drawn),"inconclusive [activator, single point]"
11,Cc1sc(NC(=O)c2ccco2)c(C(Nc2ccccn2)c2ccccc2)c1C (stereo not drawn),"inconclusive [activator, single point]"
12,N#CCCCSc1nnc(Cc2ccc3c(c2)OCO3)o1,"inconclusive [activator, single point]"
13,COc1ccc(C(=O)N/C(=C\c2cn(C)c3ccccc23)C(=O)N2CCOCC2)cc1,inactive
14,CCNC(=O)C1CC(=O)OC12CCCCC2 (stereo not drawn),inactive
15,CCn1c(=O)c(=O)[nH]c2c(=O)oc3ccc(S(=O)(=O)Nc4ccc(OC)cc4)cc3c21,"inconclusive [activator, single point]"
16,CCn1cc(CN(C)C(=O)CSc2nc(-c3ccco3)cc(C(F)(F)F)n2)c(C)n1,"inconclusive [activator, single point]"
17,Oc1cccc(-c2nc3ccc4ccccc4c3c3c2CCC3)c1,"inconclusive [activator, single point]"
18,Cc1ccccc1NC(=O)CSc1nnc2ccc(-c3ccncc3)nn12,inactive
19,O=C(CSc1ncccc1C(=O)O)c1ccccc1,"inconclusive [activator, full curve, poor fit]"
20,Cc1ccc(Cl)cc1Nc1nc(-c2sc(NC(=O)c3ccco3)nc2C)cs1,active: 20.6 µM
21,O=C1CCCCCCCCCC/C(=N\O)CCCO1,"inconclusive [activator, partial curve, poor fit]"
22,COCCNC(=O)CSc1nnc(CCCN2C(=O)c3cccc4cccc(c34)C2=O)n1-c1ccccc1,inactive
23,O=C(NC1CCCCC1)N1CCN(CCc2ccccc2)CC1,"inconclusive [activator, full curve]"

row,Structure (SMILES),Potency
1,CCOC(=O)C1CCN(Cc2nnc(-c3ccccc3C)o2)CC1,inactive
2,Cc1cc(C)n(S(=O)(=O)c2ccc3ccccc3c2)n1,"inconclusive [activator, single point]"
3,Cc1c(C(=O)N2CCN(C3CCS(=O)(=O)C3)CC2)oc2c(F)cccc12 (stereo not drawn),"inconclusive [activator, single point]"
4,CCOc1ccccc1OCCN[C@H](C)Cc1ccc(OC)c(S(N)(=O)=O)c1,inactive
5,Cc1cccc(CN2[C@@H](CC(C)C)COCCS2(=O)=O)c1,inactive
6,COc1ccc(NC(=O)c2ccccc2)c([N+](=O)[O-])c1,"inconclusive [activator, single point]"
7,COc1cc(OC)nc(NC(=O)CSc2nc3ccccc3[nH]2)n1,"inconclusive [activator, partial curve]"
8,C=CCc1ccc(OCC(O)CN2CCN(Cc3ccccc3)CC2)c(OC)c1 (stereo not drawn),"inconclusive [activator, full curve, poor fit]"
9,COc1cc(/C=N/Nc2nc(=O)[nH]nc2C)ccc1O,"inconclusive [activator, partial curve, poor fit]"
10,Cc1ccccc1NC(=O)c1ccco1,"inconclusive [activator, partial curve, poor fit]"
11,COc1ccc(Nc2ncnc3sc(C)cc23)cc1,"inconclusive [activator, single point]"
12,CCCOc1ccc(-c2c(C(=O)N/N=C(\C)c3cccs3)nnn2-c2nonc2N)cc1,"inconclusive [activator, partial curve, poor fit]"
13,CCOC(=O)C1CCN(C(=O)c2ccc(NS(=O)(=O)c3ccc(F)cc3C)cc2)CC1,inactive
14,Cc1ccc(S(=O)(=O)N2CCCCC2)cc1C(=O)OC(C)C(=O)NCC1CCCCC1 (stereo not drawn),"inconclusive [activator, partial curve, poor fit]"
15,O=C(CCC(=O)c1ccc(F)cc1)Nc1cccc(S(=O)(=O)Nc2cccc(Cl)c2)c1,"inconclusive [activator, partial curve, poor fit]"
16,O=C(CCC(=O)c1cccs1)c1cccs1,inactive
17,Cc1cc[n+](CC(=O)c2ccc(NC(=O)c3ccccc3)cc2)c2ccccc12,"inconclusive [activator, partial curve, poor fit]"
18,O=C(Cc1ccccc1[N+](=O)[O-])N1CCN(c2ccc(F)cc2)CC1,inactive
19,Cc1ccc(S(=O)(=O)NCC[C@@]2(C)C3CCC2(C)C(=O)C3)cc1 (stereo partly drawn),inactive
20,OC1CCCN(c2c3c(nc4cc(-c5cccc(Cl)c5)nn24)CCC3)C1 (stereo not drawn),inactive
21,COc1ccc(NC(=O)Cn2nnc(-c3ccccc3NC(=O)c3ccco3)n2)cc1,active: 10.3 µM
22,COC(=O)[C@H](C)NC(=O)NCc1ccc(S(N)(=O)=O)cc1,inactive
23,COc1ccc(/C(C)=N\Nc2nc(-c3ccccc3)cc(=O)[nH]2)cc1,"inconclusive [activator, single point]"

row,Structure (SMILES),Potency
1,Cc1cc(NS(=O)(=O)N(C)C)ccc1C(C)C,"inconclusive [activator, single point]"
2,Cn1cc(/C=C2\SC(=O)NC2=S)c2ccccc21,inactive
3,Oc1cccc2ccc(/C=C/c3cccs3)nc12,"inconclusive [activator, full curve, poor fit]"
4,S=C(CN1CCCC1=S)NCCc1ccccc1,inactive
5,Cc1c(NC(=O)Nc2ccc([N+](=O)[O-])cc2)c(=O)n(-c2ccccc2)n1C,"inconclusive [activator, single point]"
6,CCC(C(=O)NC1CCCCC1)N(Cc1cccs1)C(=O)c1snc(C(N)=O)c1N (stereo not drawn),"inconclusive [activator, single point]"
7,CCOC(=O)N1CCN(CC(O)COc2ccc(C)cc2C(C)(C)C)CC1 (stereo not drawn),"inconclusive [activator, partial curve, poor fit]"
8,O=C(Nc1ccc(Oc2ccccc2)cc1)C1CCCN(c2ncccn2)C1 (stereo not drawn),"inconclusive [activator, single point]"
9,Clc1ccccc1-c1ccc2ncnc(NCc3cccs3)c2c1,"inconclusive [activator, single point]"
10,CCCCC(=O)N1CCN(c2nc3ccc(Cl)cc3s2)CC1,inactive
11,O=C(C1=C[C@@H](C2CCCCC2)C[C@@H](OCc2ccc(CO)cc2)O1)N1CCN(Cc2ccc3c(c2)OCO3)CC1,"inconclusive [activator, single point]"
12,O=C(Nc1cccnc1)c1ccc2ccccc2c1O,"inconclusive [activator, single point]"
13,O=C1CCN(CCc2ccccc2)CCN1[C@H](CSc1ccc(Br)cc1)Cc1ccccc1,"inconclusive [activator, single point]"
14,O=C(c1cc(COc2ccc(F)cc2Cl)on1)N1CCCC(c2ccccc2)C1 (stereo not drawn),"inconclusive [activator, partial curve, poor fit]"
15,CN(CC(=O)Nc1cccc(S(=O)(=O)NC2=NCCC2)c1)Cc1cccc(F)c1,inactive
16,COc1ccc(Br)cc1C(C[N+](=O)[O-])c1c(N)n(C)c(=O)n(C)c1=O (stereo not drawn),"inconclusive [activator, partial curve, poor fit]"
17,N#Cc1cc(N2CCCCC2)c([N+](=O)[O-])cc1C#N,"inconclusive [activator, full curve]"
18,Nc1nc(CSc2ccccc2)nc(N2CCCCC2)n1,inactive
19,CCN(CC)CCNC(=O)c1c(C)n(-c2ccccc2)c2cc(Br)c(OC)cc12,"inconclusive [activator, single point]"
20,COc1ccc(C=CC(O)CCN2CCC3CCC(C3)C2)cc1 (stereo not drawn),"inconclusive [activator, single point]"
21,CC1CCN(C(=O)COC(=O)c2ccc3c(c2)C(=O)N(Cc2ccco2)C3=O)CC1,"inconclusive [activator, single point]"
22,CCCCn1c(N)c(N(CC(C)C)C(=O)C(C)SCc2nc3sc(C)c(C)c3c(=O)[nH]2)c(=O)[nH]c1=O (stereo not drawn),"inconclusive [activator, partial curve, poor fit]"
